# Measurements taken from article PMC4336329 (PLoS ONE, 2015).
# The whole screen tested about 310,000 compounds, of which about 14,000 (4.5%) showed an effect of 50% or more. The effect is printed as a negative number. The list shows a part of the results.
# Target: human ether-à-go-go-related gene (hERG) potassium channel (human, UniProt Q12809)
# Experiment: primary screen, population patch clamp on CHO cells stably expressing hERG
# 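Further: peak tail current of the secondary pulse compared with the same well before compound.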
# Sequence of human ether-à-go-go-related gene (hERG) potassium channel (Q12809 whole entry, looked up): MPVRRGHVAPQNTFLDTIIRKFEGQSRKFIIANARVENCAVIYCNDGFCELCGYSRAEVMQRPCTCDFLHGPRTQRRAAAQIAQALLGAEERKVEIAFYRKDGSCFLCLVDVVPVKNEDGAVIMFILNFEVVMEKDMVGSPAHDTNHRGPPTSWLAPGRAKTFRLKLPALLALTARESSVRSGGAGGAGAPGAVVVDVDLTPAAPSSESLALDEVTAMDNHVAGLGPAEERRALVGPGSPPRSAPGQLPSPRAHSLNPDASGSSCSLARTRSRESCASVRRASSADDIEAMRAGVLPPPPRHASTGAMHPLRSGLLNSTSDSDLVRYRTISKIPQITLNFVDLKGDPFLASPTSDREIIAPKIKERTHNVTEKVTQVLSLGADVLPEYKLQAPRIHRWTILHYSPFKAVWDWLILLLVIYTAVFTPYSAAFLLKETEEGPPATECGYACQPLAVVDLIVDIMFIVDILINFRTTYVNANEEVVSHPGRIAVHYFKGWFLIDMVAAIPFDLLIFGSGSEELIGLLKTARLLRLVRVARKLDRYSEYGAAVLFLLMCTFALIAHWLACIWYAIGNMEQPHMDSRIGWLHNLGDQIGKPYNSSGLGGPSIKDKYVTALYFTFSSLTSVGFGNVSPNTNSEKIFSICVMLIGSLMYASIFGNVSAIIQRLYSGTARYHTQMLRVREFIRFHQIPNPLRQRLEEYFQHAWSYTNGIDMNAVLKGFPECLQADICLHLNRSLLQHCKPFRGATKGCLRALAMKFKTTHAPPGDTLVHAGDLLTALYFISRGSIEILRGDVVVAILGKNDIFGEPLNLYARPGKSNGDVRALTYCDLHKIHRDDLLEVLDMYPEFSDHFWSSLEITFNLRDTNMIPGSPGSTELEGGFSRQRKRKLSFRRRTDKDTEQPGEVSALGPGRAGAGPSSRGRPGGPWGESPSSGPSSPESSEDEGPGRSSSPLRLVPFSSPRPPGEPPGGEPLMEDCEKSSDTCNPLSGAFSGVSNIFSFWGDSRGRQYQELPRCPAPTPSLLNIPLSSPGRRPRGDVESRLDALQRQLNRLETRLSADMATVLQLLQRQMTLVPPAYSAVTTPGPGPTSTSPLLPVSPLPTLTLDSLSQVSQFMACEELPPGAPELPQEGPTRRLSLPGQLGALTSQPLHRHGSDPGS
row,SMILES,"hERG current change (%, negative = inhibition) at 10uM"
1,O=C(COC(=O)CN1C(=O)c2cccc([N+](=O)[O-])c2C1=O)NC1CCS(=O)(=O)C1 (stereo not shown),-2.61%
2,CCN(CC)C(=O)c1ccc(CS(=O)(=O)c2ccc(Br)cc2)cc1,-4.39%
3,CN(C)CCN(Cc1cc2cc3c(cc2[nH]c1=O)OCO3)C(=S)NCC1CCCO1 (stereo not shown),1.14%
4,Cc1cccn2c(=O)c3cc(C(=O)NC(C)c4ccccc4)c(=N)n(CCCn4ccnc4)c3nc12 (stereo not shown),-68.1%
5,O=C(c1cccc(N2C(=O)C3CC=CCC3C2=O)c1)N1CCN(c2ccccc2)CC1 (stereo not shown),-7.16%
6,COc1cc(NC(=O)C2=C(N3CCOCC3)/C(=C\c3ccc(Br)cc3)CC2)cc(OC)c1OC,-8.86%
7,Cc1cccc2cc(C(c3nnnn3CC3CCCO3)N3CCOCC3)c(=O)[nH]c12 (stereo not shown),-3.75%
8,O=C(/C=C/c1cccs1)N1CCc2ccccc21,7.16%
9,COc1cccc2cc(C(=O)N3CCN(c4ncccn4)CC3)c(=O)oc12,-1.53%
10,Cc1ccc(CNC(=O)CCC2CCCN(C(=O)c3ccc4c(c3)OCO4)C2)o1 (stereo not shown),-20.5%
11,O=C(Cc1cccc(NC(=O)C2CCN(C(=O)c3ccccc3)CC2)c1)Nc1cccc(C(=O)N2CCCC2)c1,8.17%
12,COc1ccccc1CN1CC(C(=O)N2CCN(c3ccc(F)cc3)CC2)CC1=O (stereo not shown),-43%
13,CC(Oc1ccc(Cl)cc1)C(=O)Nc1ncccn1 (stereo not shown),-5.54%
14,COC(=O)c1cccc(NS(C)(=O)=O)c1,12.9%
15,O=C(NN1C(=O)C2C(C1=O)C1C=CC2C12CC2)c1ccc(Cl)cc1 (stereo not shown),1.78%
16,COc1cc(C(O)CO)ccc1OS(=O)(=O)[O-].[K+] (stereo not shown),9.76%
17,CCn1cc(/C=C/C(=O)Nc2c(C)nn(Cc3ccccc3C)c2C)cn1,4.46%
18,CC(C)c1ccc(N(C(=O)c2csnn2)C(C(=O)NC2CCCC2)c2cccnc2)cc1 (stereo not shown),-30.7%
19,O=C(O)c1ccc(Nc2ccc(F)c(F)c2)c([N+](=O)[O-])c1,8.59%
20,COc1ccc(N2CCN(CCCNC(=O)CCCn3c(=O)[nH]c4ccsc4c3=O)CC2)cc1,-9.7%
21,O=C(NCCc1cccc(C(F)(F)F)c1)C1CCC(=O)N(CCc2cccc(F)c2)C1 (stereo not shown),-56.8%
22,CC(C)CNS(=O)(=O)c1ccc(CCC(=O)N2CCN(c3ccccc3)CC2)cc1,-91.3%

row,SMILES,"hERG current change (%, negative = inhibition) at 10uM"
1,CC1(C)Oc2ccc3ccc(=O)oc3c2/C(=C/N)C1=O,5.25%
2,Cc1ccc(S(=O)(=O)N2[C@@H](c3ccccc3F)C(C(=O)O)=CC[C@H]2c2ccc3c(c2)OCO3)cc1,17%
3,C=C(C)Cn1c(-c2ccc(OC)cc2)nc2ccccc21,-23.4%
4,COc1cccc(N(CC(=O)NCc2ccccc2)C(=O)CCC(=O)Nc2nccs2)c1,10.8%
5,O=C(C(=O)N1CCN(c2ccc(F)cc2)CC1)N1CCCCC1,-6.39%
6,COc1ccc(Cl)cc1NC(=O)CN1CCN(C(=O)N2CCOCC2)CC1,-38.8%
7,COc1ccc2nc(C)cc(SCC(NC(C)=O)C(=O)OC(C)C)c2c1 (stereo not shown),-16.4%
8,COc1nc(NC(=O)c2ccc(F)cc2)nc(OC)c1-c1ccccc1,9.34%
9,CCOC(=O)C1(CCCCCCOc2ccc(Cl)cc2)CO1 (stereo not shown),4.13%
10,O=C(NCC(=O)N(c1ccc(F)cc1)C(C(=O)NC1CCCC1)c1ccncc1)c1ccco1 (stereo not shown),10.8%
11,CCn1cc([N+](=O)[O-])c(C(=O)Nc2cc(C)on2)n1,0.761%
12,CCOC(=O)C(CCCCCCP(=O)(c1ccccc1)c1ccccc1)NC(C)=O (stereo not shown),-0.737%
13,Cc1ccc(CSc2nnc(NC(=O)C3COc4ccccc4O3)s2)cc1 (stereo not shown),23.5%
14,C1=C(c2ccccc2)Nc2ccccc2N=C1c1ccccc1,0.187%
15,[O-]/C(=C(\C(=S)Nc1cccc2ccccc12)[n+]1ccccc1)c1ccc(Cl)s1,5.54%
16,O=C(CSc1nccn1-c1ccccc1)c1ccc(Br)cc1,7.33%
17,Cc1cc2oc3c(c(=O)c2cc1C)C(c1ccc(C(C)C)cc1)N(CCCN1CCOCC1)C3=O (stereo not shown),-10.5%
18,CCc1ccc(N2CC(C(=O)N/N=C/c3ccccc3)CC2=O)cc1 (stereo not shown),-14.8%
19,O=C(NCc1ccc2c(c1)OCO2)NC1CCCCC1,19.4%
20,COc1cccc(C(=O)Nc2nc(-c3ccncc3)cs2)c1,6.29%
21,COc1ccc(C2/C(=C(/O)c3ccc(C)cc3)C(=O)C(=O)N2c2ccccn2)cc1 (stereo not shown),15.1%
